In the supplement of paper PMC3334620:
In all, about 33,000 sequences were measured (“E-score (-0.5 to 0.5)”: median about -0.043, highest 2% from about 0.37 on). The list shows a part of the results.

What follows are sequences tested against T1, Upc2 (UniProt Q12151) (assay: PBM E-score (8-mer binding enrichment) (E-score (-0.5 to 0.5)); higher = stronger / more preferred TF binding; most listed sequences are background and not binding sites). Details: protein concentration: 200 nM; construct: GST-full length.
T1 sequence: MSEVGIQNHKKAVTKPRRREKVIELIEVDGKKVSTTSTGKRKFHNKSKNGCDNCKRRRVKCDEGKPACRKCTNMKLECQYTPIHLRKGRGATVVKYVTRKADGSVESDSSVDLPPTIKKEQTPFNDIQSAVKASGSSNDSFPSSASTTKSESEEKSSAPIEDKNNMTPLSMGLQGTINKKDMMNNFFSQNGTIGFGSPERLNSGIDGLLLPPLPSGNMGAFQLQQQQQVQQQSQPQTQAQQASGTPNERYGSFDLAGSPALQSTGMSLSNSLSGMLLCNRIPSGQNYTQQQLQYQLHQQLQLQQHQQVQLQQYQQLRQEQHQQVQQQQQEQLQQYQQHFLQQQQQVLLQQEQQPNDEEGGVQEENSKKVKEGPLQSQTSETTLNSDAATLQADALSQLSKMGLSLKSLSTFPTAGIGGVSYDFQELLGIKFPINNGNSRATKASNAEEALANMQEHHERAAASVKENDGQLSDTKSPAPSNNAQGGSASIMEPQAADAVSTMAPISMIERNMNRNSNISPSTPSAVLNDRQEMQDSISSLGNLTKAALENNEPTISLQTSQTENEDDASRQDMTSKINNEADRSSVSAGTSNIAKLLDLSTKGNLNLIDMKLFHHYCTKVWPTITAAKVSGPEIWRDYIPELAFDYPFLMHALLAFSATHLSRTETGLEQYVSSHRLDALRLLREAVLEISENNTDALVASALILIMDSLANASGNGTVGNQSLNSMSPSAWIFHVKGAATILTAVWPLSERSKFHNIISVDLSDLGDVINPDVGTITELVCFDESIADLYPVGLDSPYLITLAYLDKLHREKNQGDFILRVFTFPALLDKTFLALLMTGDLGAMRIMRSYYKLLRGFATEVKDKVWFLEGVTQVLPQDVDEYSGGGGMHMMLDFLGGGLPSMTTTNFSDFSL
Method in brief: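 E-scores (a modified Wilcoxon-Mann-Whitney statistic) were assigned by the Universal PBM Analysis Suite to every ungapped eight-base word pooled with its reverse complement. The input came from universal all-10-mer Agilent arrays made double-stranded by primer extension and probed with GST-tagged yeast transcription factors at about 100-200 nM. Fluorescent anti-GST detected bound protein, and masliner normalised the scans.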

| Sequence | PBM E-score |
| --- | --- |
| GGCTGTAC | 0.125 |
| ATCGACCC | -0.14 |
| AAGGATGG | -0.191 |
| GGTAATGA | -0.0164 |
| CGAATGCG | 0.274 |
| ACTGTCCC | -0.0858 |
| AAGAGGGC | -0.121 |
| TAGTCGCA | 0.0294 |
| CTGATTTC | 0.0823 |
| CAGGGCCA | -0.077 |
| AACGCTAT | 0.0885 |
| ACGATCCT | 0.296 |
| CTCAGCCA | -0.175 |
| TAATAAAA | 0.0277 |
| GCCAAAAC | -0.0908 |
| CACACCCG | 0.0898 |
| AGGTCCAA | -0.208 |
| CAGGATAA | -0.074 |
| AACGGATT | 0.2 |
| CAATATTC | 0.0379 |
| CCAGGAAC | 0.109 |
| ATGCGGGG | -0.165 |
| CTCATTTA | -0.0954 |
| AGACAGTC | -0.0784 |
| AACTGAAG | -0.0822 |

| Sequence | PBM E-score |
| --- | --- |
| TCAAGGCA | -0.37 |
| GCAATGGC | -0.172 |
| CCTCGGAG | -0.0377 |
| AGCCAGAA | -0.269 |
| ACGTTGTA | 0.0665 |
| GGGACACC | -0.175 |
| CAAGTGCC | -0.316 |
| CTCGGGAC | -0.0315 |
| ACTGGGCG | -0.178 |
| ACGGTGCA | 0.169 |
| TACTGTGA | 0.0563 |
| GCTTGAAC | 0.199 |
| CATCAGAG | -0.104 |
| CCGGCGGA | -0.185 |
| ACCGATAG | -0.0483 |
| CCGGACCG | 0.0283 |
| TACAAAGA | 0.134 |
| AGCAATCC | -0.121 |
| GGACCGGA | 0.0634 |
| AGGACCGG | -0.294 |
| GAATATCA | 0.0192 |
| CGTGAAGA | -0.0205 |
| CTGGACGC | -0.288 |
| ACCAAAAC | 0.0425 |
| ACCGGGAG | -0.115 |

| Sequence | PBM E-score |
| --- | --- |
| ATGTCTCC | -0.11 |
| TAACACTA | 0.179 |
| CTACTTGA | -0.0786 |
| ATGTGGAC | -0.212 |
| GCTCTAGA | -0.166 |
| ATGGACGA | -0.114 |
| GGCAGCCA | -0.234 |
| CCTTCTTA | -0.0392 |
| CAGATCCC | -0.0143 |
| ATAAGATC | 0.0589 |
| CACAACCG | 0.122 |
| ACCGGCGC | 0.0333 |
| ATGTTGTG | 0.0416 |
| CATTCTTA | -0.0744 |
| AGGAACTG | -0.367 |
| ACCGCCAA | -0.107 |
| TATTCCAA | 0.0307 |
| TCGACCAA | -0.204 |
| GTGGCGTA | 0.118 |
| GCGTAGAC | 0.0124 |
| CTGTTACC | 0.00711 |
| TGAGATAA | -0.142 |
| CATGCTGG | -0.328 |
| CTCTGATC | -0.171 |
| ATCCAAGA | -0.163 |

| Sequence | PBM E-score |
| --- | --- |
| CGCCAAAA | 0.13 |
| ACTTCGAC | 0.067 |
| GACGAGCA | 0.00509 |
| ACGACAGA | 0.328 |
| GTGGAATA | -0.0213 |
| ACTCCGCG | 0.0538 |
| CCTCGTCC | -0.3 |
| CCTCTGAA | -0.0906 |
| GGTATGAC | -0.204 |
| ATATGTTC | 0.108 |
| CCGTGCTC | -0.0459 |
| GGCCCAGA | -0.119 |
| AAGCCGAT | -0.0322 |
| TTACAAAA | 0.0336 |
| ATAATCAC | 0.0354 |
| CCGAGCTC | 0.197 |
| AGCAACAT | 0.0545 |
| CCAGTGCA | -0.0157 |
| AGAAGATC | 0.00501 |
| CCCCGGGA | -0.17 |
| ACTACCCA | -0.032 |
| CCTGCGGC | -0.282 |
| AAACCACC | -0.104 |
| AAAGAATG | 0.0179 |
| GACCTGGA | -0.0943 |

| Sequence | PBM E-score |
| --- | --- |
| AACCTCCT | -0.0765 |
| GCCCCACC | 0.0435 |
| AGTGGCCC | -0.197 |
| CAATCCGA | 0.0611 |
| AGCCTAAC | -0.0519 |
| AGGTCATA | 0.0789 |
| GGACTAAC | -0.0836 |
| CAGTCGAG | -0.128 |
| ACATAAAT | 0.0213 |
| GCACAGCA | -0.0358 |
| AACAACGT | 0.0176 |
| GCACAGAA | 0.00675 |
| AGACGATC | -0.0293 |
| ACTGGGAC | -0.052 |
| CCGGAGTA | 0.0983 |
| CATACCAA | -0.0379 |
| CTGCGTTC | 0.218 |
| ACGTGCCA | -0.178 |
| ATCGTCTG | 0.0923 |
| CCCGCGGG | -0.24 |
| GGACCGTA | 0.274 |
| GCTTGCTA | -0.0561 |
| AGTTGAGA | -0.105 |
| GGCGCCAA | -0.0176 |
| CGTCAGTC | -0.0936 |

| Sequence | PBM E-score |
| --- | --- |
| AAGTTTCA | 0.132 |
| CGCACACA | -0.0833 |
| GGCGGCCA | -0.162 |
| TATACTAA | 0.258 |
| ATATTCGG | -0.0205 |
| ATTTACGC | 0.154 |
| AGGCCCAG | -0.199 |
| GATAGCCA | -0.107 |
| CATGCTAC | -0.198 |
| ACTATATA | 0.188 |
| CCCGACCC | 0.0376 |
| ACCGAGTC | -0.0781 |
| ACCGACAG | 0.0284 |
| CTGATAAA | -0.0236 |
| CGCTACGA | 0.421 |
| CGTGCCCC | -0.0367 |
| CACAGGAG | -0.0197 |
| CTCGAACC | -0.0178 |
| CTGTGTGC | -0.193 |
| TAACAGTA | 0.0732 |
| ATAGTAAC | -0.0432 |
| GGACGCAA | -0.0564 |
| ATGCGTCC | -0.239 |
| ACAGTCAA | 0.0251 |
| ACGTTACT | 0.0821 |

| Sequence | PBM E-score |
| --- | --- |
| CATTGTCG | 0.0164 |
| TCAAAGCA | -0.113 |
| AACACAAA | 0.107 |
| GCGAGCTA | 0.207 |
| AGAGTAAA | 0.0457 |
| CGTGTCAG | -0.161 |
| AAATTCCT | -0.127 |
| ATAGTTCG | -0.00869 |
| CTGTGAAA | 0.0689 |
| CAGGCTAG | -0.141 |
| ACGCACGA | 0.181 |
| CATTGTAG | -0.0679 |
| CTTGTTCC | 0.0561 |
| GAACACTA | -0.14 |
| ATTGTTTA | -0.0224 |
| AGGTATTG | 0.00589 |
| ACGACCTC | 0.344 |
| CCTCCAGC | -0.0906 |
| ATATACAT | -0.0908 |
| GAAACTAC | -0.102 |
| CAGGAAAC | -0.0113 |
| AACTTACG | 0.198 |
